# Experimental data from PubChem BioAssay AID1645882 (National Center for Advancing Translational Sciences (NCATS), 2021).
# Out of some 16,000 compounds screened, about 120 (0.75%) were called active. Inconclusive results (about 4%) are left out. The call rests on the fitted dose curve; in most records, active means well fitted inhibition curve with a large enough effect; inconclusive means small, poorly fitted or top-dose-only effect; inactive means no such curve, though single readings can be large or run the other way. The list shows a part of the results.
# Target: Rap guanine nucleotide exchange factor 3 (Homo sapiens) (UniProt O95398)
# Experiment: Validation qHTS for antagonist of cAMP-regulated guanine nucleotide exchange factor 3 (EPAC1);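 further: plate controls were DMSO for no effect and ATA control for full effect; nearly all actives have a fitted effect of over 75% in size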
# Details: EPAC1 Rap1B-BODIPY-GDP exchange, fluorescence; series mostly up to 150 µM; activity change, negative = inhibition: at the top concentration
# Method in brief: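 Nucleotide exchange followed as fluorescence loss when BODIPY-GDP leaves Rap1B (480 nm excitation, 540 nm emission), read at 5 min intervals over 30 min. Reaction: 100 nM EPAC1, 250 nM RAP1B-BODIPY-GDP, 50 uM GDP; ATA and DMSO define normalization.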
# Chain of UniProt O95398 (O95398 whole entry, looked up): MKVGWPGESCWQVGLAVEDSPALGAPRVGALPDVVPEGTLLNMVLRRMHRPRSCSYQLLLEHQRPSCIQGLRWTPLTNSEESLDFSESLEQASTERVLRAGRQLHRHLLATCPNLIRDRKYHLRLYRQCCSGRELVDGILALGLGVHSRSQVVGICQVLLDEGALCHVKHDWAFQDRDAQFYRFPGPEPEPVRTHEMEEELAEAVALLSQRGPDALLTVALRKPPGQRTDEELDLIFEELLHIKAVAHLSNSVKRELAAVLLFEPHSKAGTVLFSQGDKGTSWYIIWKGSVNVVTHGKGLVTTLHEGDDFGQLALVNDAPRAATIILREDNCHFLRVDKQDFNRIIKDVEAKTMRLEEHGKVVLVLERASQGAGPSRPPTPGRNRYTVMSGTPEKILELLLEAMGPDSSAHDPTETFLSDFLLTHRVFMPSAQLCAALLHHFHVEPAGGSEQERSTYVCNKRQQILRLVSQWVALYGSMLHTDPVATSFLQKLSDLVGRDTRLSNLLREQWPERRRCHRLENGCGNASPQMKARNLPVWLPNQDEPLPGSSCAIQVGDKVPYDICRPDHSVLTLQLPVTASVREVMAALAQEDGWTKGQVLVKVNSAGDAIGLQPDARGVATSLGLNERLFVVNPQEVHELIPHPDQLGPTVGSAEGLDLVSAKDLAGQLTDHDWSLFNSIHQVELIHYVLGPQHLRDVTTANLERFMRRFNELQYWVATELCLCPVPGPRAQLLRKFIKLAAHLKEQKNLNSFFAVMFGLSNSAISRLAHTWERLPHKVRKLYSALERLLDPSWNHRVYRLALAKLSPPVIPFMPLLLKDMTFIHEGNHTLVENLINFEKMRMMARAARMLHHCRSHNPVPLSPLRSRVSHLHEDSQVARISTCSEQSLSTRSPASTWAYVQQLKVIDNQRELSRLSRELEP
row,Structure (SMILES),"activity change, negative = inhibition"
1,COc1cccc(CN2C(=O)NC(C)(C3CCN(Cc4cc(F)cc(F)c4)CC3)C2=O)c1OC (configuration not stated),inactive: -9.51%
2,NC(=O)NC(=O)Cc1ccccc1,inactive: 22.4%
3,Cc1c(C(=O)NCC2COCCO2)cnn1-c1nccc(-c2cccs2)n1 (configuration not stated),inactive: 15.2%
4,COCC1CCCN(Cc2ccc3c(c2)CN(C(=O)c2ccc(-c4ccc(C)o4)cc2)CCO3)C1 (configuration not stated),inactive: 6.91%
5,CCCCN1C[C@H](Cc2ccccc2)[C@@H](CC(=O)Nc2ccccc2)C1=O,inactive: -11.2%
6,CN1CCCC2(CCN(S(=O)(=O)c3ccccc3)CC2)C1,inactive: 21.5%
7,CCCCN1CC[C@H]2C=CC[C@@H](C(=O)Nc3ccc(OC)cc3)[C@H]2C1=O,inactive: 8.28%
8,COCC(=O)N1CCC2(CCCN(c3ccncc3)C2)CC1,inactive: 5.12%
9,N#Cc1cc2[nH]c(=O)c(=O)[nH]c2cc1[N+](=O)[O-],inactive: 3.13%
10,CO[C@H]1[C@H](NC(=O)c2cccs2)c2ccccc2C12CCN(Cc1cccn1-c1cccnc1)CC2,inactive: 10.1%
11,O=C(c1cccnc1)C1CCCN(Cc2ccc3c(c2)CN(C(=O)c2cccc(Cl)c2)CCO3)C1 (configuration not stated),inactive: 15.7%
12,CC1CS(=O)(=O)CCN1/N=C/c1ccc([N+](=O)[O-])o1 (configuration not stated),inactive: 7.32% [at 75.8 µM]
13,CC1CC[C@@]2(C(=O)O)CC[C@]3(C)C(=CCC4[C@@]5(C)CCC(O)C(C)(C)C5CC[C@@]43C)C2C1C (some centres not stated),inactive: 4.6%
14,CC(=O)NC(CC(=O)O)C(=O)O (configuration not stated),inactive: 21.9%
15,C[C@@H](CN=[N+]=[N-])CN1CC[C@H](C(C)(C)C)CCC1=O,inactive: -0.773%
16,CC1(C)OC2CC3C4CCC5=CC(=O)CCC5(C)C4(F)C(O)CC3(C)[C@]2(C(=O)CCl)O1 (some centres not stated),inactive: 14.6%
17,OC[C@H]1O[C@@H](n2cnc3cncnc32)[C@H](O)[C@@H]1O,inactive
18,O=C1CCC[C@@H]2[C@H](Cc3ccccc3)[C@@H](O)C[C@@H]3CCN1[C@@H]32,inactive: -14.2%
19,O=S(=O)(c1ccccc1)N1CCC2(CC1)CN(Cc1ccccc1)C2,inactive: 14.7%
20,CC(=O)C(C)=O,inactive: -0.0011% [at 75.8 µM]
21,COc1ccc(Oc2ncc3nc(CCc4ccccc4)c(=O)n(CCC#N)c3n2)cc1,inactive: 4.04%

row,Structure (SMILES),"activity change, negative = inhibition"
1,Cn1cccc1C(=O)N1CCC2(CCCN(c3ccccn3)C2)CC1,inactive: 5.39%
2,c1ccc2[nH]c(-c3cscn3)nc2c1,inactive
3,N#Cc1cccc(-c2nc(Nc3ccccc3)c3ccccc3n2)c1,inactive: 26.3%
4,OC[C@@H](O)[C@@H](O[C@@H]1O[C@H](CO)[C@H](O)[C@H](O)[C@H]1O)[C@H](O)[C@@H](O)CO,inactive: -5.02%
5,COc1ccc2[nH]cc(CCNc3ncnc4ccc(-c5ccc(C(=O)N(C)C)cc5)cc34)c2c1,inactive: 22.1%
6,COc1ccc(-c2ccc(C(=O)N3CCc4c(cnc(C)c4CNS(=O)(=O)N(C)C)C3)o2)cc1,inactive: 4.51%
7,O=C1CC2(CCCC2)CC(=O)N1CCNC[C@H]1COc2ccccc2O1,inactive: 6.08%
8,O=C(NCC1Cc2cc(F)cc(-c3cnccn3)c2O1)c1cccc(Cl)c1 (configuration not stated),inactive: -8.87%
9,CN1[C@@H](CC(=O)c2ccccc2)CCC[C@H]1C[C@H](O)c1ccccc1,inactive
10,COC(=O)N1CCC2(CCCN(c3ccncc3)C2)CC1,inactive: 12.9%
11,CCCCCCCN(CC)CCCC(O)c1ccc(NS(C)(=O)=O)cc1 (configuration not stated),inactive: -9.23%
12,CC1C(=O)CCC2[C@]1(C)CCC1[C@]2(C)CC[C@@]2(C)C3CC(C)(C)CC[C@]3(C)CC[C@@]12C (some centres not stated),inactive: -4.36%
13,C=C1C[C@]23C[C@@]1(O)CC[C@H]2[C@@]12C=C[C@H](O)[C@@](C)(C(=O)O1)[C@H]2[C@@H]3C(=O)O,inactive: -25.8% [at 75.8 µM]
14,CN1CCN(c2nc(-c3ccccc3C(F)(F)F)nc3ccccc23)CC1,inactive: 9.92%
15,COc1ccccc1-c1nccc(NCc2ccccc2)n1,inactive: 3.04%
16,Cc1occc1C(=O)Nc1cccc(-c2nc(CNC(=O)c3ccc4ccccc4n3)c(C)o2)c1,inactive: 8.17%
17,C1=Cc2ccccc2/C1=C/c1ccc(/C=C2\C=Cc3ccccc32)cc1,inactive: 11.9%
18,Cc1cc(C)n(Cc2cccc(C(=O)NCC3Cc4cccc(-c5ncccn5)c4O3)c2)n1 (configuration not stated),inactive: -5.11%
19,Oc1cc(-c2nc3ccccc3s2)cc2c1OCCN(Cc1cccn1-c1nccs1)C2,inactive: 8.28%
20,Nc1ncnc2c1ncn2[C@@H]1O[C@H](COP(=O)(O)OP(=O)(O)CP(=O)(O)O)[C@@H](O)[C@H]1O,inactive: 11.6%
21,CC1(C)S[C@@H]2[C@H](NC(=O)[C@H](NC(=O)N3CCN(S(C)(=O)=O)C3=O)c3ccccc3)C(=O)N2[C@H]1C(=O)O,inactive: 24.9%

row,Structure (SMILES),"activity change, negative = inhibition"
1,CN(C(=O)CO)c1c(I)c(C(=O)NCC(O)CO)c(I)c(C(=O)NCC(O)CO)c1I (configuration not stated),inactive: 19.1%
2,CN1CCN(c2ncnc3ccc(-c4ccc(C(=O)N(C)C)cc4)cc23)CC1,inactive: 12%
3,CC(=O)N(Cc1ccc2c(c1)OCO2)Cc1cc2ccc(C)cc2nc1-c1cccc(C)c1,inactive: -19.1%
4,C[C@@H]1[C@H](c2ccccc2)OCCS(=O)(=O)N1Cc1ccc(Cl)cc1,inactive: -4.05%
5,N#CCCn1c(=O)c(-c2ccc(F)cc2)nc2cnc(Oc3cccc(Cl)c3)nc21,inactive: 21.6%
6,O/N=C(/C[n+]1ccsc1)c1ccc(I)cc1,inactive: -9.22%
7,O=C(c1ccco1)N1CCC2(CCCN(c3ncccn3)C2)CC1,inactive: 15.7%
8,Cc1cccc(CNc2ncncc2-c2ccc3c(c2)OCO3)c1,inactive: 8.46%
9,CC(C)CCCC(C)CCCC(C)CCCCC(C)CCCC(C)CCCC(C)C (configuration not stated),inactive: 5.23%
10,COC(=O)c1c(OC)cc2c(c1C)Oc1c(Cl)c(OC(C)=O)c(Cl)c(C)c1C(=O)O2,inactive: -9.85%
11,N#Cc1cc([N+](=O)[O-])c2sc(C(N)=O)[n+]([O-])c2c1,inactive: -0.687% [at 75.8 µM]
12,O=C(c1ccncc1)N1CCC2(CCN(Cc3cc(C(F)(F)F)cc(C(F)(F)F)c3)CC2)CC1,inactive: -8.49%
13,C[C@@H]1Oc2ccccc2C=C1/C=C/C(=O)O,inactive: 11.3%
14,CC[N+](CC)(CC)CCOC(=O)C(C1CCCC1)C1CCCC1,inactive: 38.6%
15,COCCn1c(=O)c(-c2cccc(F)c2)nc2cncnc21,inactive: -17.6%
16,CC[N+]1(CC(=O)c2ccc(I)cc2)CCCCC1,inactive: 11.8%
17,CN1CCC(=O)N([C@H](CSc2ccccc2)Cc2ccccc2)CC1,inactive: 15.6%
18,COc1ccccc1-c1cc2c(c(OC)c1)OCCN(CCC(C)c1ccc(C)o1)C2 (configuration not stated),inactive: 11.5%
19,Cc1nc2ccc(C(=O)N3CCOc4ccc(CN5CCOCC5)cc4C3)cc2nc1C,inactive: 8.02%
20,COCC(=O)Nc1cc(C(=O)N2CCN(C3CCCC3)C(=O)C2)c2c(c1)nc(-c1ccncc1)n2C,inactive: 16.8%
